This is one part of the list.
Assays:
[1] = tested on: HSkMC (human skeletal muscle cells); assay: cytotoxicity call (relative viability < 0.9); conditions: 10 µM
[2] = tested on: S. aureus RN4220; assay: growth inhibition call (relative growth <= 0.2); conditions: 50 µM

| SMILES | cytotoxicity call [1] | growth inhibition call [2] |
| --- | --- | --- |
| C[C@H](CO)N1C[C@H](C)[C@@H](CN(C)Cc2ccc3c(c2)OCO3)OCCCC[C@H](C)Oc2ccc(NC(=O)CCC(F)(F)F)cc2C1=O | inactive | inactive |
| C[C@@H]1CN([C@@H](C)CO)C(=O)c2cccc(NC(=O)NC3CCCCC3)c2O[C@@H]1CN(C)Cc1ccc(Oc2ccccc2)cc1 | inactive | inactive |
| Cc1ccccc1S(=O)(=O)N(C)C[C@@H]1Oc2ccc(NC(=O)Nc3cccc(C(F)(F)F)c3)cc2CC(=O)N([C@@H](C)CO)C[C@@H]1C | active | inactive |
| C[C@H](CO)N1C[C@H](C)[C@H](CN(C)C(=O)Nc2ccc(C(F)(F)F)cc2)Oc2ccc(NC(=O)C3CCCCC3)cc2CC1=O | inactive | inactive |
| CC(C)NC(=O)N(C)C[C@H]1OCCCC[C@@H](C)Oc2ccc(NC(=O)Nc3ccc(C(F)(F)F)cc3)cc2C(=O)N([C@H](C)CO)C[C@@H]1C | inactive | inactive |
| CC1(O)CCC(C(C)(C)O)CC1.O (configuration not stated) | inactive | inactive |
| C[C@H](CO)N1C[C@H](C)[C@@H](CN(C)C(=O)C2CCOCC2)Oc2cc(C#Cc3ccncc3)ccc2S1(=O)=O | inactive | inactive |
| COc1cccc(NC(=O)N[C@@H]2CC[C@H](CC(=O)N3CCN(C)CC3)O[C@H]2CO)c1 | inactive | inactive |
| C[C@@H]1CN([C@@H](C)CO)C(=O)c2cc(NC(=O)Cn3cnnn3)ccc2O[C@@H]1CN(C)Cc1ccc(C(=O)O)cc1 | inactive | inactive |
| C[C@@H]1CCCCO[C@@H](CN(C)S(=O)(=O)c2cccs2)[C@H](C)CN([C@@H](C)CO)C(=O)c2cc(NC(=O)c3ccccc3)ccc2O1 | inactive | inactive |
| CO[C@H]1O[C@H](CO)[C@@H](OC(=O)Nc2ccc3c(c2)OCO3)[C@@H]2OC(=O)[C@H](Cc3cccc(Br)c3)C/C=C/C[C@@H](Cc3cccc(Br)c3)C(=O)O[C@@H]12 | inactive | inactive |
| COc1cc(Nc2c(C#N)cnc3cc(OCCCN4CCN(C)CC4)c(OC)cc23)c(Cl)cc1Cl | inactive | inactive |
| Cc1cc(C(=O)Nc2cccc3c2O[C@H](CN(C)S(=O)(=O)c2cccs2)[C@@H](C)CN([C@H](C)CO)C3=O)n(C)n1 | inactive | inactive |
| C[C@@H]1CCCCO[C@@H](CN(C)Cc2ccc3c(c2)OCO3)[C@@H](C)CN([C@H](C)CO)C(=O)c2cc(NC(=O)c3ccccc3)ccc2O1 | inactive | inactive |
| Cc1ccc(S(=O)(=O)N(C)C[C@@H]2Oc3ccc(NC(=O)C4CC4)cc3CC(=O)N([C@@H](C)CO)C[C@H]2C)cc1 | inactive | inactive |
| C[C@H](CO)N1C[C@H](C)[C@H](CN(C)C(=O)Nc2cccc(Cl)c2Cl)OCc2ccccc2-c2ccccc2C1=O | inactive | inactive |
| COC(=O)c1c2oc(c1C(=O)OC)C(=O)N[C@@H](Cc1ccccc1)Cn1cc(nn1)CNC(=O)[C@@H](Cc1ccccc1)NC(=O)N[C@@H](CO)CC2 | inactive | inactive |
| Cc1ccc(S(=O)(=O)N(C)C[C@H]2OCCCC[C@H](C)Oc3ccc(NC(=O)Nc4cccc5ccccc45)cc3C(=O)N([C@@H](C)CO)C[C@@H]2C)cc1 | inactive | inactive |
| C[C@@H]1CN([C@@H](C)CO)C(=O)c2cc(NC(=O)Nc3ccc(F)cc3)ccc2O[C@@H](C)CCCCO[C@@H]1CN(C)Cc1ccc(C(F)(F)F)cc1 | inactive | inactive |
| Cc1cc2n(n1)CCN(C(=O)[C@H]1CC[C@@H](N)C1)C2 | inactive | inactive |
| Cc1ccc(S(=O)(=O)N(C)C[C@@H]2Oc3ccc(NC(=O)Cn4cnnn4)cc3CC(=O)N([C@@H](C)CO)C[C@@H]2C)cc1 | inactive | inactive |
| CC(C)CN1C(=O)[C@@]2(c3ccc([N+](=O)[O-])cc3)CC(=O)N(CC3C4CC5CC(C4)CC3C5)[C@@H]2c2ccc(CO)cc21 (some centres not stated) | inactive | inactive |
| CC12C=CC(=O)C=C1CCC1C2C(O)CC2(C)C1CCC2(O)C(=O)COC(=O)CCC(=O)O (configuration not stated) | inactive | inactive |
| C[C@@H]1CN([C@H](C)CO)S(=O)(=O)c2ccc(C#Cc3cccc(F)c3)cc2O[C@@H]1CN(C)CC1CC1 | inactive | inactive |
| C[C@H]1CN([C@@H](C)CO)C(=O)Cc2cc(NC(=O)CCCCCC(=O)Nc3ccccc3N)ccc2O[C@H]1CN(C)C(=O)Nc1cccc2ccccc12 | inactive | inactive |
| COc1ccc(S(=O)(=O)N(C)C[C@@H]2Oc3c(NC(=O)Nc4cccc5ccccc45)cccc3C(=O)N([C@@H](C)CO)C[C@H]2C)cc1F | inactive | inactive |
